# Among all 110,000 compounds or so, about 230 (0.21%) showed an effect of 50% or more. The list shows a part of the results.
# Target: DPAP1 (Plasmodium falciparum, UniProt Q8IIJ9)
# Assay: primary screen, percent inhibition; read by cleavage of a fluorogenic dipeptide substrate; higher = more effect of the substance
# Set-up: species or system P. falciparum D10 trophozoite lysates; single well
# 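Further: 30 min substrate incubation versus DMSO and 10 µM JCP410 controls.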
# Chain of DPAP1 (Q8IIJ9 whole entry, looked up): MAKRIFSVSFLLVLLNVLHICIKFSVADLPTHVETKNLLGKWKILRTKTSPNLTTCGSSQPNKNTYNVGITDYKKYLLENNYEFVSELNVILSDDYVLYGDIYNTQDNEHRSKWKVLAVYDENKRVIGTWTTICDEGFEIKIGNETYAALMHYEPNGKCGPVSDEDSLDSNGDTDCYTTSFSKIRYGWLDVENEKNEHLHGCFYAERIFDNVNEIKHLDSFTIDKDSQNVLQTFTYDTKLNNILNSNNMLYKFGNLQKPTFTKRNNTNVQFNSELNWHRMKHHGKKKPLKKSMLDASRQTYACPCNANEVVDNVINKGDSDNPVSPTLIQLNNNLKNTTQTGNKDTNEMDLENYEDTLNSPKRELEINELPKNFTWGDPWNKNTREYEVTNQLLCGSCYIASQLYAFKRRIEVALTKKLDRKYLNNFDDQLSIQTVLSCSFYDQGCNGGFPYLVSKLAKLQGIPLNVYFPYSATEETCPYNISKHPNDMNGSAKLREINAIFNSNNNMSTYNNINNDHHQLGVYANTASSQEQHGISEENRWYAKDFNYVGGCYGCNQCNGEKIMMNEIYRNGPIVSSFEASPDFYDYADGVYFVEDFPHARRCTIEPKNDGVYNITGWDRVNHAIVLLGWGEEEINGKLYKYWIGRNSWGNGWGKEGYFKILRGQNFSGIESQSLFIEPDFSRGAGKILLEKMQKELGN
row,Structure (SMILES),% Inhibition @ 10 uM [%]
1,Cc1ccc(S(=O)(=O)NCC2CCC(C(=O)NCCC(C)C)CC2)cc1 (stereo not shown),-4.53
2,CCCCOc1ccc(-c2nnn(CC(=O)O)n2)cc1OCC,4.57
3,COCCn1c(COc2ccc(C)cc2)nc2ccccc21,2.01
4,CCCN1CCC(NCC2CCCCC2)CC1,6.68
5,CC(=O)CC(=O)N1CCN(c2ccc(F)cc2)CC1,-1.98
6,COc1cc(CN2CCCC(C)C2)cc(OC)c1 (stereo not shown),-5.42
7,c1ccc(OCc2nc3ccccc3n2Cc2ccccn2)cc1,-1.72
8,O=S(=O)(c1ccccc1)N1CCCC(c2nc(O)c3nnn(Cc4ccccc4F)c3n2)C1 (stereo not shown),4.3
9,Cn1c(=O)c2c(nc(CN3CCOCC3)n2CCc2ccccc2)n(C)c1=O,-7.05
10,CC1CCN(C(=O)Cn2cc(C(=O)c3ccccc3)c3ccccc32)CC1,1.62
11,COC(=O)c1sccc1NC(=O)COCc1cc(-c2cccs2)on1,-3.53
12,CN1C2=C(C(=O)CCC2)C(c2cc(Cl)ccc2OCC(=O)Nc2ccccc2)C2=C1CCCC2=O,-1.52
13,Cc1ccccc1NC(=O)CN1C(=O)S/C(=C/c2cccc(O)c2)C1=O,3.89
14,C/C(Cl)=C/Cn1c(SCC(C)O)nc2c1c(=O)[nH]c(=O)n2C (stereo not shown),-1.08
15,CCOc1ccc(-c2cc(C(=O)NCCCOC(C)C)c3ccccc3n2)cc1,-4.06
16,OCC1CCCCN1Cc1ccc(C(F)(F)F)cc1 (stereo not shown),4.22
17,CCOC(=O)c1cc(C(=O)OCC)c2cc(Br)ccc2n1,-2.6
18,CCOc1cc(C/N=c2/c(-c3ccc(Cl)cc3)c(O)c2=O)cc(OCC)c1OCC,-2.74
19,CCOC(=O)/C(C#N)=C\c1ccc(OC)c(O)c1,5.69
20,c1ccc2nc3c(nc2c1)[nH]c1ccccc13,-1.8
21,C=CCNC(=O)C(=O)NCc1ccc(Cl)cc1Cl,3.15
22,COc1ccc2nc(NC(=O)Cn3ncc4c(=O)oc5ccccc5c43)sc2c1,-8.63

row,Structure (SMILES),% Inhibition @ 10 uM [%]
1,O=C(CC(c1ccccc1)c1ccccc1)n1nnc2ccccc21,1.84
2,Cc1cc(NC(=O)Cc2nn(C)c(=O)c3ccccc23)no1,6.47
3,O=C(/C(=C/c1ccc(F)cc1)n1cncn1)c1ccc(Cl)cc1Cl,-3.71
4,COc1cccc(C2c3c(oc4ccc(C)cc4c3=O)C(=O)N2c2nc(C)c(C)s2)c1 (stereo not shown),3.73
5,Cc1ccc(Cl)cc1-n1ncc2c(N3CCOCC3)ncnc21,-6.5
6,COc1cc(NS(=O)(=O)c2ccc(NC(=O)c3ccc(Br)cc3)cc2)ncn1,1.96
7,COc1cccc(-c2noc(N)c2C#N)c1,0.446
8,CCOc1ccccc1N(CC(=O)NC1CCCCC1)S(=O)(=O)c1ccc(C)cc1,-1.61
9,COc1cc(C2C=C(c3cccc(Br)c3)Nc3ncnn32)cc(OC)c1OC (stereo not shown),-9.28
10,COC(=O)C1=CN(C2CC2)C=C(C(=O)OC)C1c1ccc(OC(F)(F)F)cc1,-2.65
11,O=C(Nc1ncccc1Cl)C1COc2ccccc2O1 (stereo not shown),-3.71
12,CC(=O)NS(=O)(=O)c1ccc(NC(=O)COc2ccccc2C)cc1,1.94
13,Cc1nn(CC(=O)NCCCN2CC(C)CC(C)C2)c(=O)c2cccn12 (stereo not shown),-0.0739
14,COc1ccc(/C=C/c2nc(C#N)c(N3CCCC3)o2)cc1OC,4.13
15,Cn1c(=O)c(C(=O)c2ccccc2)c(O)c2ccccc21,2.64
16,N=C(NOC(=O)N1CCOCC1)c1ccccn1,5.17
17,CCn1c(C(=O)N2CCC(C(=O)NCCC3=CCCCC3)CC2)cc2sccc21,0.137
18,CCCCN(C)C(=O)CS(=O)(=O)Cc1nc(-c2cccc(OC)c2)oc1C,7.79
19,CCC(Sc1nc(C)cc(C)n1)C(=O)Nc1cccc2ccccc12 (stereo not shown),-7.57
20,Cc1ccccc1CN(c1ccc(C(=O)Nc2ccc(F)cc2F)cc1)S(C)(=O)=O,-7.17
21,Cc1ccc2c(c1)c1nc3ccccc3nc1n2CCCN1C(=O)c2ccccc2C1=O,3.54
22,Cc1cc(OCC(=O)Nc2ccc(S(=O)(=O)N3CCCCCC3)cc2)ccc1Cl,1.08

row,Structure (SMILES),% Inhibition @ 10 uM [%]
1,Cc1ccc(SCCC(=O)NC(C)(C)C)cc1,3.68
2,OC(CNC1CCC2C1CCC1C3CCCCC3CCC12)COc1ccccc1 (stereo not shown),-3.44
3,Cc1cc(Br)ccc1NC(=O)CCN1C(=O)c2ccccc2S1(=O)=O,-4.65
4,COc1ccc(C2C(C#N)=C(N)OC3=C2C(=O)CC(C)C3)cc1Br (stereo not shown),-2
5,COc1ccc(CC(=O)Nc2ccc(Br)c(C)c2)cc1,-3.74
6,CC1CCCCN1CCCNC(=O)CCc1nnc2n(Cc3ccccc3)c(=O)c3ccccc3n12 (stereo not shown),4.16
7,Cc1ccc(Nc2cc(=O)n(C)c(=O)n2C)cc1C,0.392
8,CC(C)(C)C1=NN(c2c(Cl)cc(Cl)cc2Cl)C(=O)C1,-1.77
9,CCc1nc(S)c2c(n1)-c1ccccc1CC21CCCCC1,-0.807
10,O=C(c1scc2c1CCCC2)N1CCN(c2ccc(O)cc2)CC1,-9.6
11,CCN(CC)CCN1C(=O)C(O)=C(C(=O)c2ccc(F)cc2)C1c1ccc(Cl)cc1 (stereo not shown),2.55
12,CC(C)Cc1ccc(S(=O)(=O)N2CCN(Cc3noc(CCC(=O)N4CCCC4)n3)CC2)cc1,15.8
13,CCc1cc2c(=O)n(CC(=O)Nc3ccc(OC)cc3)cnc2s1,-7.96
14,Cc1ccc2nc3c(cc(C(=O)NC4CCCCC4)c(=N)n3CCN3CCOCC3)c(=O)n2c1,-1.47
15,O=C(NCCc1ccccn1)/C(=C/c1ccco1)NC(=O)c1ccccc1,2.44
16,O=C(c1ccco1)N1CCN(C(=O)c2ccc(Br)o2)CC1,-3.21
17,CCOc1ccc(-c2nc(C#N)c(NCCN3CCOCC3)o2)cc1,0.315
18,CC(C)(C)NC(=O)c1ccc2c(c1)C(=O)N(C1CCCCC1)C2=O,-16.1
19,COc1ccc(CCNC(=O)CN2CC(=O)N3CCCC3C2=O)cc1OC (stereo not shown),1.23
20,CCCOc1ccc(/C=c2\sc3nc(-c4ccc(F)cc4)nn3c2=O)cc1,0.561

# Source: paper PMC6919601, “Identification of Plasmodium dipeptidyl aminopeptidase allosteric inhibitors by high throughput screening” (PLoS ONE, 2019)
